According to PubChem BioAssay AID588855 (National Center for Advancing Translational Sciences (NCATS), 2011):
“And” between values parts separate entries of the source, which are not always exact repeats. Identical values can stand only once. The campaign covered roughly 410,000 compounds. About 5,000 (1.2%) were called active. Inconclusive results, whose numbers are uncertain, are shown with a selection of clear calls. The call rests on the fitted dose curve; in most records, active means well fitted inhibition curve with a large enough effect; inconclusive means small, poorly fitted or top-dose-only effect; inactive means no such curve, though single readings can be large or run the other way. A potency beside an inconclusive call is a rough fit, not a confirmed value.

Assay: qHTS for Inhibitors of TGF-b; further: nearly all actives have a fitted effect of over 65% in size
Conditions: HepG2 CAGA-GFP TGF-b/SMAD3 reporter, GFP fluorescence, 18 h, TGF-beta stimulated, 500 pg/mL final; series mostly up to 46.1 µM
Outline: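 HEPG2 CAGA-GFP cells (1000/well, DMEM with 1% FBS) were pre-incubated 2 h at 37 degrees C, given compound by pin tool, then stimulated with TGF-beta at 500 pg/mL final for 18 h before per-cell GFP fluorescence imaging.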
Potency means the concentration at half of the fitted maximal effect; tags describe the fitted curve by direction and shape.

Question: For O=C(N/N=C/c1ccc(O)cc1O)/C(=C/c1ccccc1)CCO, which Potency is on record?
Answer: inconclusive: 12.6 µM [inhibitor, single point]

Question: Which Potency does the source give for Cc1ccc(Nc2nc(-c3sc(C)nc3C)cs2)cc1 here?
Answer: inconclusive: 35.5 µM [inhibitor, single point]

Question: For COc1ccc(Nc2nnc(-c3ccc(C(N)=O)cc3)c3ccccc23)cc1, which Potency is on record?
Answer: inconclusive: 15.8 µM [inhibitor, single point]

Question: For CC(C)Oc1ccc(S(=O)(=O)N2CCOCC2)cc1NC(=O)c1ccc(N2CCCC2=O)cc1, which Potency is on record?
Answer: inactive

Question: With Nc1nonc1N/N=C/c1c(O)ccc2ccccc12 as the molecule, how does the Potency read?
Answer: inconclusive: 12.6 µM [inhibitor, partial curve, poor fit]

Question: Which Potency does the source give for O=C(N/N=C/c1ccc(N2CCOCC2)s1)c1ccccc1Br here?
Answer: inconclusive: 6.31 µM [inhibitor, single point]

Question: Which Potency does the source give for CCn1c(=O)c2cc(C(=O)N(C)c3ccc(OC)cc3OC)sc2c2ccccc21 here?
Answer: inconclusive: 35.5 µM [inhibitor, single point]

Question: Which Potency does the source give for CCN(CC(=O)NCc1cccs1)C(=O)c1cccc(S(=O)(=O)N(C)C)c1 here?
Answer: inconclusive: 4.47 µM [inhibitor, partial curve, poor fit]

Question: For O=C(N/N=C/C=C\c1ccccc1)c1cnccn1, which Potency is on record?
Answer: inactive

Question: With CCOc1ccc(NC(=O)c2cc(S(=O)(=O)N3CCCCC3)c[nH]2)cc1 as the molecule, how does the Potency read?
Answer: inconclusive: 5.62 µM [inhibitor, single point]

Question: Which Potency does the source give for CCOc1ccccc1C(=O)N[C@H](C(=O)OCc1csc(CC(=O)Nc2ccc(C)cc2)n1)C(C)C here?
Answer: inconclusive: 20 µM [inhibitor, partial curve, poor fit]

Question: For O=C(NCCCCc1ccccc1)NC[C@@H]1CC[C@@H](Cc2ccc(-c3ccccc3)cc2)O1, which Potency is on record?
Answer: inconclusive: 20 µM [inhibitor, partial curve, poor fit]

Question: For Cc1ccc2oc(=O)c3cnn(CC(=O)N4CCN(c5cc(Cl)ccc5C)CC4)c3c2c1, which Potency is on record?
Answer: inconclusive: 35.5 µM [inhibitor, single point]

Question: For CSc1ccc(/C=C2\C=Cc3ccc([N+](=O)[O-])cc32)cc1, which Potency is on record?
Answer: inactive

Question: With Cc1nc(-c2ccc(S(=O)(=O)N3CCCN(CCc4ccccc4)CC3)s2)cs1 as the molecule, how does the Potency read?
Answer: active: 8.91 µM

Question: Which Potency does the source give for Cc1nc2sc(C(c3ccco3)N3CCc4ccccc4C3)c(O)n2n1 (stereo unspecified) here?
Answer: inconclusive: 2.51 µM [inhibitor, partial curve]

Question: Which Potency does the source give for COc1cc(/C=C2\CCC/C(=C\c3ccc(O)c(OC)c3)C2=O)ccc1O here?
Answer: inconclusive: 31.6 µM [inhibitor, single point] and inconclusive: 25.1 µM [inhibitor, single point]

Question: Which Potency does the source give for CCn1nc(C)c(CN2CCC(C(=O)Nc3cccc(-c4cccc(Cl)c4)c3)CC2)c1C here?
Answer: inconclusive: 5.62 µM [inhibitor, single point]

Question: For Cn1nc(C(C)(C)C)cc1C(=O)NNC(=O)c1ccc(C(F)(F)F)cc1, which Potency is on record?
Answer: inconclusive: 11.2 µM [inhibitor, partial curve]

Question: With COc1ccc(NC(=O)CCCc2nnc3n(CCC(C)C)c(=O)c4sccc4n23)c(OC)c1 as the molecule, how does the Potency read?
Answer: inconclusive: 0.112 µM [inhibitor, full curve, poor fit]

Question: With N#CC(C#N)=C(Nc1ccc(F)cc1)SCc1cccc(F)c1 as the molecule, how does the Potency read?
Answer: inconclusive: 1.26 µM [inhibitor, full curve, poor fit]

Question: For CCOC(=O)CNC(=O)Cc1ccc(OC)cc1, which Potency is on record?
Answer: inactive

Question: Which Potency does the source give for Cc1cc(Cl)ccc1OCC(=O)Nc1nc(-c2cccs2)cs1 here?
Answer: inconclusive: 28.2 µM [inhibitor, single point]

Question: For COCCNC(=O)c1ccc(-n2c(-c3ccccc3)cc3c2CCCCC3)cc1, which Potency is on record?
Answer: inconclusive: 1.26 µM [inhibitor, partial curve, poor fit]

Question: With O=C(CCl)N1CCCC1c1ccc2c(c1)OCCO2 (stereo unspecified) as the molecule, how does the Potency read?
Answer: inconclusive: 35.5 µM [inhibitor, single point]

Question: Which Potency does the source give for ONC(=Nc1ccccc1)c1ccc(Cl)cc1 here?
Answer: inconclusive: 3.16 µM [inhibitor, single point]

Question: With Cc1ccc(C)c(-n2c(-c3csc(C)c3C)n[nH]c2=S)c1 as the molecule, how does the Potency read?
Answer: inactive

Question: With CCn1c(=O)n(-c2ccc(F)c(Cl)c2)c(=O)c2c3c(sc21)CN(C(C)=O)CC3 as the molecule, how does the Potency read?
Answer: inconclusive: 6.31 µM [inhibitor, single point]

Question: For CN(Cc1nccn1C)C(=O)C1CCC(=O)N(CCc2ccc(Cl)cc2)C1 (stereo unspecified), which Potency is on record?
Answer: inactive

Question: Which Potency does the source give for CCOc1c2ccc(C(=O)NCc3ccc4c(c3)OCO4)cc2nn1CC here?
Answer: inconclusive: 35.5 µM [inhibitor, single point]

Question: For CCCCOc1ccc(C(=O)N/C(=C/C=C/c2ccccc2)C(=O)NCCCO)cc1, which Potency is on record?
Answer: inconclusive: 35.5 µM [inhibitor, single point]

Question: For O=C(CSCC(=O)N1CCCCC1)Nc1nc(-c2ccccc2)c(-c2ccccc2)s1, which Potency is on record?
Answer: inconclusive: 35.5 µM [inhibitor, single point]

Question: Which Potency does the source give for CCCC(=O)N(c1ccc2oc(C)c(C(C)=O)c2c1)S(=O)(=O)c1ccc(C)cc1 here?
Answer: inconclusive: 17.8 µM [inhibitor, single point]

Question: For CCOc1ccc(-c2nc(N)ncc2Oc2ccccc2Br)c(O)c1, which Potency is on record?
Answer: inconclusive: 35.5 µM [inhibitor, single point]

Question: For COc1cc2oc(=O)c(CC(=O)N3CCCCC3)c(C)c2cc1OC, which Potency is on record?
Answer: inactive

Question: With CCCCNC(=S)Nc1cccc2cnccc12 as the molecule, how does the Potency read?
Answer: inactive

Question: For CCN(c1ccccc1)S(=O)(=O)c1cccc(C(=O)NCC(c2ccco2)N2CCCC2)c1 (stereo unspecified), which Potency is on record?
Answer: inconclusive: 5.62 µM [inhibitor, single point]

Question: Which Potency does the source give for Cc1cc(Cl)ccc1Oc1nccc(N(C)C)c1C#N here?
Answer: inactive

Question: With CC(=O)Nc1ccc2nc(C)n(Cc3ccc(Cl)cc3)c(=O)c2c1 as the molecule, how does the Potency read?
Answer: inconclusive: 6.31 µM [inhibitor, single point]

Question: With O=C(NCc1ccccc1)C1=C[C@H](c2ccc(C(F)(F)F)cc2)C[C@H](OCc2ccc(CO)cc2)O1 as the molecule, how does the Potency read?
Answer: inconclusive: 1.58 µM [inhibitor, full curve]

Question: With O=C(C[C@H]1C[C@@H]2c3cc(NC(=O)Nc4ccccc4F)ccc3O[C@@H]2[C@H](CO)O1)NCc1ccccn1 as the molecule, how does the Potency read?
Answer: inactive
